{"source": "PubChem BioAssay AID504832", "about": "(National Center for Advancing Translational Sciences (NCATS), 2011)", "note": "The whole screen tested about 310,000 compounds, of which about 18,000 (5.8%) were called active. Inconclusive results, whose numbers are uncertain, are shown with a selection of clear calls. The call rests on the fitted dose curve; in most records, active means well fitted inhibition curve with a large enough effect; inconclusive means small, poorly fitted or top-dose-only effect, or another doubt; inactive means no such curve, though single readings can be large or run the other way. Potencies of inconclusive entries are left out as doubtful fits. On the % scale 0 is the no-effect control and ±100 the full control effect; potency means the concentration at half of the fitted maximal effect; tags describe the fitted curve by direction and shape.", "data": [{"test": "Primary qHTS for delayed death inhibitors of the malarial parasite plastid, 48 hour incubation", "details": "P. falciparum luciferase growth in erythrocytes; series mostly up to 28.7 µM; activity change, negative = inhibition: at the top concentration", "outline": "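First compound was added to culture medium, then infected red cells at 0.1% parasitemia and 2% hematocrit (final). After incubation at 37 C under 5% CO2, luciferase detection reagent was dispensed and light output recorded.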", "values": [{"smiles": "COc1ccc(COC(=O)C2CCN(S(=O)(=O)c3ccc(Cl)cc3)CC2)cc1", "Potency": "inconclusive [inhibitor, single point]"}, {"smiles": "COCCNC(=O)c1cccc(OC2CCN(Cc3ccc(Cl)c(F)c3)CC2)c1", "Potency": "inconclusive [inhibitor, single point]"}, {"smiles": "CC(C)Oc1ccc(C(=O)OCC(=O)NCCNC(=O)COC(=O)c2ccc(OC(C)C)cc2)cc1", "Potency": "inconclusive [inhibitor, single point]"}, {"smiles": "CCOC(=O)CC(=O)CSc1ccc2nnc(-c3ccccc3)n2n1", "Potency": "active: 3.7 µM"}, {"smiles": "CC1(c2ccc([N+](=O)[O-])cc2)Nc2ccccc2S1", "note": "(stereo not drawn)", "activity change, negative = inhibition": "inactive: -5.52% [at 0.00184 µM]"}, {"smiles": "CC(=O)Nc1ccc(S(=O)(=O)NCCSCc2ccco2)cc1", "activity change, negative = inhibition": "inactive: -7.06%"}, {"smiles": "COc1cccc(OC)c1C(=O)NC(=O)Nc1c(F)c(F)c(F)c(F)c1F", "Potency": "active: 7.38 µM"}, {"smiles": "Cc1ccc(NC(=O)C(C)OC(=O)c2ccc(NC(=O)CC#N)cc2)cc1S(=O)(=O)N1CCOCC1", "note": "(stereo not drawn)", "Potency": "inconclusive [inhibitor, partial curve]"}, {"smiles": "NC(=O)c1nsc(C(=O)N(CCc2ccccc2)C(C(=O)NC2CCCC2)c2ccco2)c1N", "note": "(stereo not drawn)", "Potency": "inconclusive [inhibitor, full curve, poor fit]"}, {"smiles": "CCOC(=O)c1cnc2cc(F)c(F)cc2c1N1CCN(C)CC1", "Potency": "inconclusive [inhibitor, partial curve, poor fit]"}, {"smiles": "COc1cccc(N(C(=O)c2ccco2)c2nc(-c3sc(NC(=O)c4ccco4)nc3C)cs2)c1", "Potency": "inconclusive [inhibitor, partial curve]"}, {"smiles": "CCOc1ccc(CCNC(=O)c2ccc3c(c2)NC(=O)C2CCCN32)cc1OCC", "note": "(stereo not drawn)", "Potency": "active: 5.22 µM"}, {"smiles": "CCOc1ccc(CCNC(=O)c2ccc3nc(N4CCOCC4)sc3c2)cc1OCC", "Potency": "inconclusive [inhibitor, partial curve, poor fit]"}, {"smiles": "Cc1ccccc1-c1nc(S(=O)(=O)c2ccc(Br)cc2)c(NCc2cccnc2)o1", "Potency": "active: 13.1 µM"}, {"smiles": "CCCOc1ccc(/C=C/C(=O)OCC(=O)N(C)c2c(N)n(Cc3ccccc3)c(=O)[nH]c2=O)cc1OCC", "activity change, negative = inhibition": "inactive: -10.7%"}, {"smiles": "CCCOc1ccc(N2C(=O)CC(N3CCN(CCN=CC4C(=O)CC(C)(C)CC4=O)CC3)C2=O)cc1", "note": "(stereo not drawn)", "activity change, negative = inhibition": "inactive: 12.7%"}, {"smiles": "CCOC(=O)c1ccc(-n2c(CCC(=O)O)ccc2-c2cccs2)cc1", "activity change, negative = inhibition": "inactive: -9.91%"}, {"smiles": "CC1CC(C)CN(C(=O)CNC(=O)c2sc3ccccc3c2Cl)C1", "note": "(stereo not drawn)", "Potency": "inconclusive [inhibitor, single point]"}, {"smiles": "CCNC(=S)N(Cc1ccco1)Cc1cc2cc3c(cc2[nH]c1=O)OCCO3", "Potency": "inconclusive [inhibitor, single point]"}, {"smiles": "CCC(=O)N1CCN(c2nc(C)nc3sc(C)c(C)c23)CC1", "activity change, negative = inhibition": "inactive: 1.58%"}, {"smiles": "COCCn1cc(C(=O)N2CCC(C)CC2)c2c3ccccc3n(C)c2c1=O", "Potency": "inconclusive [inhibitor, partial curve, poor fit]"}, {"smiles": "CCOc1cc2c(cc1OCC)-n1cccc1C(c1ccc(F)c(OC)c1)NC2", "note": "(stereo not drawn)", "Potency": "active: 10.4 µM"}, {"smiles": "O=C(COC(=O)c1ccccc1Oc1ccccc1)NCc1ccco1", "activity change, negative = inhibition": "inactive: 0.0621%"}, {"smiles": "CCOc1ccc(N(CC(=O)NC2CCCCC2)C(=O)CCC(=O)Nc2cc(C)ccn2)cc1", "Potency": "inconclusive [inhibitor, partial curve, poor fit]"}, {"smiles": "CNC(=O)COC(=O)c1cc2c(s1)CCCC2", "activity change, negative = inhibition": "inactive: 14.4%"}, {"smiles": "CCN1C(=O)[C@@H]2[C@@H](c3ccc(-c4ccc(Cl)c(Cl)c4)c(OC)c3)N3CCC[C@@]3(C(=O)OC)[C@@H]2C1=O", "Potency": "active: 5.22 µM"}, {"smiles": "COc1ccc(NS(=O)(=O)c2ccc(C)c(NC(=O)C3CCCO3)c2)cc1", "note": "(stereo not drawn)", "Potency": "inconclusive [inhibitor, partial curve, poor fit]"}, {"smiles": "Cc1ccccc1S(=O)(=O)Cc1ccc(C(=O)NCc2ccccc2)o1", "activity change, negative = inhibition": "inactive: 7.37%"}, {"smiles": "COC(=O)c1ccccc1NS(=O)(=O)c1ccc(F)cc1", "Potency": "inconclusive [inhibitor, partial curve]"}, {"smiles": "CCCSC1=C(C#N)C(c2ccccc2C)CC(=O)N1", "note": "(stereo not drawn)", "Potency": "inconclusive [inhibitor, single point]"}, {"smiles": "CC(=O)c1cccc(NC(=O)c2ccc(C)c(S(=O)(=O)N3CCOCC3)c2)c1", "Potency": "inconclusive [inhibitor, single point]"}, {"smiles": "O=C(Nc1ccc(Cl)c(S(=O)(=O)N2CCOCC2)c1)c1ccc(OCC2CCCO2)cc1", "note": "(stereo not drawn)", "Potency": "active: 11.7 µM"}, {"smiles": "CCOC(=O)C1=C(O)/C(=C/c2ccc(OCC(=O)O)c(OC)c2)SC1=Nc1ccc(OC)cc1", "Potency": "inconclusive [inhibitor, single point]"}, {"smiles": "CCc1ccc(NC(=O)C(CC)c2ccccc2)cc1", "note": "(stereo not drawn)", "Potency": "inconclusive [inhibitor, single point]"}, {"smiles": "O=C(OC1CCCCC1=O)c1cc(S(=O)(=O)N2CCOCC2)ccc1F", "note": "(stereo not drawn)", "Potency": "inconclusive [inhibitor, full curve, poor fit]"}, {"smiles": "Cc1c(C(C)(C(=O)O)c2c(C)n(C)c3ccccc23)c2ccccc2n1C", "Potency": "inconclusive [inhibitor, full curve]"}, {"smiles": "Cc1ccccc1NC(=S)NCCC(c1ccccc1)c1ccccc1", "activity change, negative = inhibition": "inactive: -2.07%"}, {"smiles": "C=C(C)COc1ccc(-c2nc(N)ncc2Oc2ccccc2OCC)c(O)c1", "Potency": "inconclusive [inhibitor, single point]"}, {"smiles": "S=C(Nc1ccc(Cl)cc1)c1nc2ccccc2[nH]1", "activity change, negative = inhibition": "inactive: -42.1%"}, {"smiles": "Cc1nc(C)c(C(=O)N(c2ccccc2F)C(C(=O)NCC2CCCO2)c2ccccc2)s1", "note": "(stereo not drawn)", "Potency": "inconclusive [inhibitor, single point]"}, {"smiles": "O=C(NC(=O)c1ccncc1)NC(c1ccccc1)c1ccccc1", "Potency": "inconclusive [inhibitor, single point]"}, {"smiles": "C/C(N)=C(\\C#N)C(=O)NCc1ccccn1", "Potency": "inconclusive [inhibitor, full curve, poor fit]"}, {"smiles": "Cc1ccc(C)c(N2CCN(C(=O)c3ccc4c(c3)c(C)c(C)n4C)CC2)c1", "Potency": "inconclusive [inhibitor, partial curve]"}, {"smiles": "O=C1N(Cc2cccc(Cl)c2)C[C@@H]2C[C@@H](c3cccn3-c3nccs3)N3CCC[C@@]123", "Potency": "inconclusive [inhibitor, partial curve]"}, {"smiles": "CCCCCC(=O)NC(=S)Nc1ccc(N2CCCCC2)c(Cl)c1", "Potency": "inconclusive [inhibitor, partial curve, poor fit]"}, {"smiles": "CCCCCCn1nc(C(=O)OCC(=O)NC2CCS(=O)(=O)C2)c2ccccc2c1=O", "note": "(stereo not drawn)", "activity change, negative = inhibition": "inactive: 6.38%"}, {"smiles": "CC1CN(c2ccc(C(F)(F)F)cc2[N+](=O)[O-])CCN1S(C)(=O)=O", "note": "(stereo not drawn)", "activity change, negative = inhibition": "inactive: 13.3%"}, {"smiles": "CC(C)c1ccc(C2(C)NC(=O)N(CC(=O)NCC3COc4ccccc4O3)C2=O)cc1", "note": "(stereo not drawn)", "Potency": "inconclusive [inhibitor, single point]"}, {"smiles": "O=c1[nH]c(=O)n(C2CCCCC2)c(O)c1/C=N/N1CCCCC1c1cccnc1", "note": "(stereo not drawn)", "Potency": "inconclusive [inhibitor, partial curve, poor fit]"}, {"smiles": "O=C(Nc1ccc2ncccc2c1)c1ccccc1", "activity change, negative = inhibition": "inactive: 1.16%"}, {"smiles": "CNC(=O)CSc1nc(-c2ccccc2)c(-c2ccccc2)o1", "Potency": "inconclusive [inhibitor, single point]"}, {"smiles": "O=C(COC(=O)c1nc(Cl)ccc1Cl)Nc1ccc(Cl)cn1", "Potency": "inconclusive [inhibitor, single point]"}, {"smiles": "O=C(Nc1cc(-c2ccccc2)nn1-c1ccccc1)c1ccccc1F", "Potency": "inconclusive [inhibitor, partial curve, poor fit]"}, {"smiles": "COc1ccc(-c2nn(C)c3sc(C(=O)N4CCOCC4)cc23)cc1OC", "Potency": "inconclusive [inhibitor, partial curve]"}, {"smiles": "COc1ccc(OCC#CCN2CC(C)OC(C)C2)cc1", "note": "(stereo not drawn)", "activity change, negative = inhibition": "inactive: -16.5% [at 5.75 µM]"}, {"smiles": "O=C(Nc1ccccc1Cl)C1CC(=O)n2c(nc3ccccc32)N1", "note": "(stereo not drawn)", "activity change, negative = inhibition": "inactive: 12.4%"}, {"smiles": "COc1ccc(OCC(=O)Nc2cccc(NC(=O)COc3ccc(OC)cc3)n2)cc1", "Potency": "inconclusive [inhibitor, single point]"}, {"smiles": "O=C(Cc1nc(-c2cnccn2)no1)NNC(=O)Nc1ccccc1", "activity change, negative = inhibition": "inactive: -2.58%"}, {"smiles": "CC(C(=O)NCC1CCCO1)c1ccc([N+](=O)[O-])cc1", "note": "(stereo not drawn)", "activity change, negative = inhibition": "inactive: 8%"}, {"smiles": "CC(C)CC(=O)O/N=C1\\C(=O)N(Cc2ccc(Cl)cc2)c2ccc([N+](=O)[O-])cc21", "Potency": "inconclusive [inhibitor, partial curve, poor fit]"}, {"smiles": "COCCn1c(SCC(=O)N2CCc3ccccc32)nc2c(c1=O)SC(C)C2", "note": "(stereo not drawn)", "Potency": "inconclusive [inhibitor, single point]"}, {"smiles": "O=C1NC(c2ccccc2)=C(c2ccc3ccccc3n2)C(c2ccc(F)cc2)N1", "note": "(stereo not drawn)", "Potency": "active: 5.22 µM"}, {"smiles": "CN1CCN(C(=O)c2ccc(NS(=O)(=O)c3cccc([N+](=O)[O-])c3)cc2)CC1", "activity change, negative = inhibition": "inactive: 57.8%"}, {"smiles": "CC1(C)C(=O)C=C[C@]2(C)[C@H]3CC[C@@]4(C)[C@H](c5ccoc5)OC(=O)[C@H]5O[C@]54[C@]3(C)[C@H](O)C[C@@H]12", "Potency": "active: 11.7 µM"}, {"smiles": "C[n+]1c2cc(N)ccc2cc2ccc(N)cc21", "Potency": "active: 0.0478 µM"}, {"smiles": "Cc1ccc(N=Cc2sc(O)c3ccccc23)cc1", "activity change, negative = inhibition": "inactive: -86.8%"}, {"smiles": "CC1CCCN(CCOc2ccc3ccccc3c2Br)C1", "note": "(stereo not drawn)", "Potency": "inconclusive [inhibitor, single point]"}, {"smiles": "CCOC(=O)[C@H]1[C@H]2COc3cc(OC)ccc3[C@@H]2N2C(=O)N(c3ccc(Br)cc3)C(=O)[C@@]12C", "Potency": "inconclusive [inhibitor, single point]"}]}]}
